Measurements: publication PMC12136788
The list shows a part of the results.

T1: UNK ZnF1-3 (human, UniProt Q9C0B0 31-174)
T1 sequence: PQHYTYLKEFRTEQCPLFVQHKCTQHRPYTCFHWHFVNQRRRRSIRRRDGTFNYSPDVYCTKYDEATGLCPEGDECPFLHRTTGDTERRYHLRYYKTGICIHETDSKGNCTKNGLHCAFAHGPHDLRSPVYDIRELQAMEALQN

B1: 91636688_91636808_2471_3pUTR_ENSG00000180694_ENST00000458549|human|control|control (ssRNA)
RNA: GGGAGUUCUACAGUCCGACGAUCUCAUAUGCCAAAUUAUAUUCUAUAGUCAUAAGUGCUAUUAAUAAAUACAUUUGAUUCAUGCUACAAGAGAAAGAAUUGAGACAAUUUCACAUUUCAGAAUUCCUGAGUCUUAUCAGAGAACAACAGAGGAUUGAGCAUCA
B2: chr11:101919151:101919152:-_ENSMUSG00000017314_ENSMUST00000017458|mus_hu|FALSE|FALSE (ssRNA)
RNA: GGGAGUUCUACAGUCCGACGAUCCAAAUGAGAUUCCUAGUAUAAGAAAUAUAUUCUAACAUUUGUAAUAAAUAUUCUGUUUAUUCUCCUUCCCCUUCCCUAGGAAAUGGGCACACAGUGGUUCAGGGGCCAGCUUUGGCUGACCAACAGAGGAUUGAGCAUCA
B3: chr6:114281168:114281169:-_ENSG00000196591_ENST00000368632|hu_hu|hu_hu_hu_mus_True|98_108 (ssRNA)
RNA: GGGAGUUCUACAGUCCGACGAUCUUCCAUUUUUCUGUAUAAGCCAUAAUUUAGCAGCAAGUUAUGAGUCAUCCGGAUUCUAUGAGGCUUCAUGGGAUGACCCUGGCCAUAAUAAUAAUUGCCAAUAUCACCAUCAUAGUAGUACAACAGAGGAUUGAGCAUCA
B4: chr16:94690093:94690094:+_ENSMUSG00000040785_ENSMUST00000117648|mus_hu|mus_mus_mus_hu_True|1_38 (ssRNA)
RNA: GGGAGUUCUACAGUCCGACGAUCGGGCUGGGAUGACGGACACACAGCCUCGAUUCCAGGGGGAAAAAGUCUUAGUCGAUACUAAUUAAAAAGUGUUUUUAUAAUUGGAAAAUCAGAUUACAUCUAUAAAAGAUGAAAGCACUUCAACAGAGGAUUGAGCAUCA
B5: 48543538_48543658_587_CDS_ENSG00000177981_ENST00000317697|human|control|control (ssRNA)
RNA: GGGAGUUCUACAGUCCGACGAUCGGCAGCCCAGCUGAGCGGUGUAUCAUUGUUGUAAUCCAGGGCAUUGACAGAGGCCCCGCUCUCUAGGAGAGCCCGCACACACUCAGCAUUGUUCUUAAAGGCUGCCCAGUGAAGUGGGGUCAACAGAGGAUUGAGCAUCA
B6: chr3:176767854:176767855:-_ENSG00000177565_ENST00000430069|hu_hu|hu_hu_hu_mus_False|8_78 (ssRNA)
RNA: GGGAGUUCUACAGUCCGACGAUCGACAUCCUUGUUACUGGGCACGUCCUGCCCUCCUUCUCGUAUACAGUGUCUAAGCACGAGCUGCGUAGGGCCACUCGUGCUGUUCUCACUGAGGUUCCAGAUUCUUGCUGUUGAGUCUCCCAACAGAGGAUUGAGCAUCA
B7: chr1:163112212:163112213:-_ENSG00000143248_ENST00000313961|hu_hu|hu_hu_hu_mus_False|88_88 (ssRNA)
RNA: GGGAGUUCUACAGUCCGACGAUCUUUUAUUAUCAGUAAGAGUGAGUCACAUAGUACGCAAAGUAUUGGAUACAAUAAUCAGGAAACAAACACUAUUGGUCCAGAAUUUAAAACUUUAUGAGCGAAGUGCUGGCACAGGACUUACAACAGAGGAUUGAGCAUCA
B8: chr13:14287670:14287671:+_ENSMUSG00000039219_ENSMUST00000039538|mus_hu|motif|central (ssRNA)
RNA: GGGAGUUCUACAGUCCGACGAUCAGCAGCACUUUCUCUCUCUUUCUUCUUUAAACGCUUUCUCCUCCGAUCAAUGGAAGCGGCUUCAGAUUUUAAUGACAGAUAAUGUUUUCUGAUUUCUUGAAGUUUUUCUUGAAGAAUUGUCAACAGAGGAUUGAGCAUCA
B9: 54476299_54477260_1302_CDS_ENSMUSG00000041303_ENSMUST00000041638|mouse|control|control (ssRNA)
RNA: GGGAGUUCUACAGUCCGACGAUCAGAAUUAUAUUCACCAACAUCCAGAAAAGCUUCAGCAACAUCAAGAUAGAGGUCACCCAUAUCUUCAGGGUUCUGUUCUACCAGUGUUGUCAGAAGAGGAUUGAGGGGCUCAAGGAUGUUCAACAGAGGAUUGAGCAUCA
B10: chr5:56168658:56168659:+_ENSG00000095015_ENST00000399503|hu_mus|FALSE|FALSE (ssRNA)
RNA: GGGAGUUCUACAGUCCGACGAUCGGAGGAUGGCUGCUGGACAGCUCGCAGGGAGGUGGGGGACUCCACGGGGCUUGAUAACUCAUGGCUGUAGAAGUCAUGGGAUCUCCACUUAGAUCUACAAAGGGGACAUAUUAAAGGCUCCAACAGAGGAUUGAGCAUCA
B11: chr1:244870462:244870463:+_ENSG00000121644_ENST00000302550|hu_mus|FALSE|FALSE (ssRNA)
RNA: GGGAGUUCUACAGUCCGACGAUCAUGAAAUUUACUCAAAGACAUGUAUCUUCACACAGAGAAUGUGACUCUCACACUAAUCACGUAUCUAAAGCUGCAGUCAGUACCUUGGAUGUUCCUAUGUUGUAUCCACUACUUACACAGCAACAGAGGAUUGAGCAUCA
B12: chr2:44571030:44571031:-_ENSG00000138078_ENST00000409411|hu_mus|FALSE|FALSE (ssRNA)
RNA: GGGAGUUCUACAGUCCGACGAUCCCUUAUCUUGGCAGCCACGUAUUUCUCAUCAGGAGCAACUCUGAUGCAAUCAAUGAAAGGCUGAUCCAAUUUAAGUUCUUCCAGGUUGAAUAAAACUUCAUAAUUAUCACUGUCAGCUUCCAACAGAGGAUUGAGCAUCA
B13: chr12:123346578:123346579:+_ENSG00000130787_ENST00000253083|hu_hu|motif|central (ssRNA)
RNA: GGGAGUUCUACAGUCCGACGAUCAGCUCUAGCUCGGAAUAUUAAAAACACUAUUUUCUGAAGAGGAAUAUUAAAAACACGGUUUUCUGAAGAGUUGAGGCUCAGGCCUACCGGGUCCUGGCUGCACCCCAAAGUUCCUUCUGCCAACAGAGGAUUGAGCAUCA
B14: chr4:48850422:48850423:+_ENSG00000109180_ENST00000264312|hu_hu|motif|central (ssRNA)
RNA: GGGAGUUCUACAGUCCGACGAUCAGCAAGUAUAAGUUUAGGGAUGGAACCAUAUUUGGGAUGACUUGAAAGUAUUCCUUUACGGAUUAAUCCUUGAGUAAUCAACAUACUUGUUGCAGCCAAAGGCACAGAUCUGAACCAGAACAACAGAGGAUUGAGCAUCA

target: T1, UNK ZnF1-3; assay: nsRBNS (natural sequence RNA bind-n-seq); RBNS binding buffer (assumed for nsRBNS): 25 mM Tris pH 7.5, 150 mM KCl, 3 mM MgCl2, 0.01% Triton X-100, 500 ug/ml BSA, 20 U/ml SUPERase-In, 4 C; UNK is unkempt and MSI1 is Musashi-1; names of the RNAs are library labels; protein concentration not given here; high values mean tight binding

Binder	binding signal
B1	0.956 enrichment R
B2	1.57 enrichment R
B3	1.13 enrichment R
B4	1.11 enrichment R
B5	0.546 enrichment R
B6	0.326 enrichment R
B7	1.68 enrichment R
B8	1.04 enrichment R
B9	1.63 enrichment R
B10	1.69 enrichment R
B11	0.604 enrichment R
B12	1.39 enrichment R
B13	1.39 enrichment R
B14	1.3 enrichment R
